The subject of one data set is HeLa cells. In words: Cytotoxicity toward HeLa cells. The class given is cell-based.
The nature of data set [1]: Human plasma protein binding and recovery.
Data set [2] deals with various cancer cell lines. In words: Antitumor activity toward various cancer cell lines. The data set is classed as cell-based.
In data set [3] the test system is A3 (human acute T cell leukemia). In words: Antitumor activity toward A3 cells. The following applies: read-out: IC50 A3. The data set is classed as cell-based.
Data set [4] concerns B and T cells from healthy donors. In words: Differential cytotoxicity: normal B and T-lymphocytes versus CLL cells. The following applies: Figure 2.
For data set [5] the following is noted: cited from earlier work.
The subject of data set [6] is primary human chronic lymphocytic leukemia cells (CLL). The data set can be described thus: Cytotoxicity toward primary CLL cells. The class given is cell-based.

Consider nine compounds from paper PMC5522753 (Bioorganic & medicinal chemistry letters, 2016).

In general, IC50 refers to the concentration that inhibits the measured activity by half.

As for `Cc1c(Br)c(Br)n2c1C(=O)N[C@@H]1[C@H]2C[C@]2(O)[C@H]1NC(=O)N2C` [Compound 7], the “activity toward HeLa cells (in words)” value with HeLa cells is “inactive”. The same measure, in the same setting: the entry for `Cc1c(C)c2n(c1Br)[C@@H]1C[C@]3(O)[C@@H](NC(=O)N3C)[C@@H]1NC2=O` [Compound 8] is “no activity was observed”. As to `CN1C(=O)N[C@H]2[C@@H]3NC(=O)c4cc(Cl)c(Br)n4[C@@H]3C[C@]21O` [Compound 3, 14-chloro AglA], the “potency increase toward HeLa cells versus C14-Br” value in the data set with HeLa cells (C14-chloro versus C14-bromo derivative) is given as 17 X. The “recovery / stability in plasma (in words)” value in data set [1] is reported as “full recovery”. Further, the “plasma protein binding (in words)” value in data set [1] (human plasma and FBS) was “not highly protein bound”. In data set [2] (Table 2 cell lines), the “activity relative to AglA toward various cancer cell lines (in words)” value was “comparable activity to AglA”.

Regarding `CN1C(=O)N[C@H]2[C@@H]3NC(=O)c4cc(Br)c(Br)n4[C@@H]3C[C@]21O` [AglB (4), AgelB], the “fold less potent than AglA toward all cell lines” value in data set [2] (all cell lines of Table 2) is on record as ~ 10 X. For the same compound, the 50% inhibitory concentration (IC50) in data set [3] was above 1 µM.

For `CN1C(=O)N[C@H]2[C@@H]3NC(=O)c4ccc(Br)n4[C@@H]3C[C@]21N` [Compound 18], the “reduction of activity toward HeLa cells versus AglA” value in the data set on HeLa cells (0.084 μM to 17 μM) was ~ 200 X. For the compound `CN1C(=O)N[C@H]2[C@@H]3NC(=O)c4ccc(Br)n4[C@@H]3C[C@]21O` [AglA (1), (−)-Agelastatin A], in data set [4], the “toxicity toward B and T cells from healthy donors compared to CLL cells” value is “less toxic toward B and T cells from healthy donors”. Moreover, in data set [5], the blood-brain barrier penetration entry was “excellent blood-brain barrier penetration”. Regarding `Cc1ccc2n1[C@@H]1C[C@]3(O)[C@@H](NC(=O)N3C)[C@@H]1NC2=O` [Compound 25], the half-maximal inhibitory concentration (IC50) in data set [3] is above 1 µM. For the compound `CN1C(=O)N[C@H]2[C@@H]3NC(=O)c4c(Br)c(Br)c(Br)n4[C@@H]3C[C@]21O` [Compound 5, 15-bromoAgelB], the “activity toward HeLa cells (in words)” value in the data set on HeLa cells was “inactive”. `CN1C(=O)N[C@H]2[C@@H]3NC(=O)c4cc(-c5ccccc5)c(-c5ccccc5)n4[C@@H]3C[C@]21O` [Compound 10]: in the data set with HeLa cells, the “activity toward HeLa cells (in words)” value was “did not show significant activity”. Further, the “activity toward CLL cells (in words)” value in data set [6] is recorded as “did not show significant activity”.
